These results are taken from paper PMC6212790.

Some of the results follow. At the low end of the ranking the order means little.

The experiment deals with T1, GST-Rok-C97-191 (UniProt O34857).
T1 sequence: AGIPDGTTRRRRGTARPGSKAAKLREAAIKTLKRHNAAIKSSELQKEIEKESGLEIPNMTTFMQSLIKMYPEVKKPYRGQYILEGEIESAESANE
The experiment can be described thus: protein binding microarray.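 Note: rank score from −0.5 (least bound) to 0.5 (best bound).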 The following applies: Rok is a gene silencer of Bacillus subtilis; high values mean tight binding; most listed sequences are background and not binding sites; double strand, one strand shown.
With AAGAGCAT, the binding signal is -0.182 E-score.
To AGGCTGGG belongs -0.256 E-score; to AATGCTAT, 0.21 E-score; to GGGATGTA, 0.169 E-score.
The same measure for ACTCTGAA: -0.133 E-score; for AACCGCGT: -0.0223 E-score; for GCAGTCCC: -0.226 E-score.
The same measure for GATACTTA: 0.158 E-score; for ATGGGAAG: -0.194 E-score; for CCCAGAAA: -0.192 E-score.
CTTACCTC came in with a binding signal of 0.0439 E-score.
The same measure for AAATTTAT: 0.292 E-score; for CGTTCAAC: -0.0993 E-score; for ACTGTGCG: -0.106 E-score.
ATTTTAGG: the binding signal is 0.193 E-score.
The same measure for ACAGTGGT: -0.0396 E-score.
To ACAACATC belongs -0.0659 E-score; to CGTCACGC, -0.156 E-score; to ACGAGCCT, -0.114 E-score.
To CAAGGCTA belongs -0.188 E-score.
As to AGCATGAC, the binding signal is -0.187 E-score.
To CGTAGGTC belongs -0.234 E-score.
The same measure for AGATAACA: 0.279 E-score; for GTCGTTGA: 0.0109 E-score; for CTAAAGAC: -0.046 E-score.
The same measure for ATCGTAAG: 0.0194 E-score; for AGTGATTG: -0.145 E-score.
Take CCAAGAGG: the binding signal was -0.117 E-score.
To CTCAACAC belongs 0.006 E-score.
CCCATTCA gave a binding signal of -0.252 E-score.
In turn, CGACATAG came in with a binding signal of 0.00977 E-score.
As for AGCTGACT, the binding signal came out at 0.0109 E-score.
To GAGGTCAA belongs -0.0196 E-score.
As for AAACCAAC, the binding signal was -0.0784 E-score.
To TCAACGAA belongs 0.04 E-score.
The same measure for TCCGTACA: 0.0658 E-score.
To GTTGCTGA belongs -0.0618 E-score; to AGAGCAGA, -0.0404 E-score; to AACACGAG, 0.00492 E-score.
CACGTCAG: the binding signal is -0.195 E-score.
In turn, ACACTGCA displayed a binding signal of 0.0245 E-score.
To AACTGTAT belongs 0.0405 E-score; to CGGTTCCC, -0.207 E-score; to GGCTATAA, -0.00372 E-score.
For the sequence AGCATGAA, the binding signal came out at 0.0324 E-score.
The same measure for CAGTCCGG: -0.236 E-score; for CCCAATCA: -0.378 E-score; for ACTGTCAT: 0.00202 E-score.
The same measure for GGCCACAA: -0.134 E-score; for AACCACGC: -0.218 E-score; for AATCAGTC: -0.116 E-score.
The same measure for AGATACCC: -0.0435 E-score.
In turn, CGAAATCG showed a binding signal of 0.0639 E-score.
The same measure for CAACGAGG: -0.207 E-score.
Sequence CACCGGTC came in with a binding signal of -0.204 E-score.
The same measure for GCAGTACA: 0.145 E-score.
Sequence TCACCAAA came in with a binding signal of 0.12 E-score.
To ACAAAAAA belongs 0.136 E-score.
To CGCCGCTC belongs -0.333 E-score; to TCTCTAAA, -0.109 E-score; to CCTGTGTC, -0.0736 E-score.
To AACTGCAG belongs 0.14 E-score; to CATAGAAC, 0.02 E-score.
CGCTCGGA showed a binding signal of -0.29 E-score.
The same measure for ATACGAGA: -0.0415 E-score; for ACCCCTTG: -0.18 E-score.
The same measure for CTGCAAAG: -0.00253 E-score; for GGGTTTTA: 0.0754 E-score; for GGCCAACC: -0.234 E-score.
The same measure for CTGTCATC: 0.0136 E-score; for AGTATTAA: 0.306 E-score.
Turning to AACTCCGG, the binding signal was found to be 0.0581 E-score.
The same measure for CCGCATAG: -0.133 E-score; for ACCGGTTA: 0.0683 E-score.
The same measure for TAGTTAAA: 0.281 E-score.
The same measure for CTCCCTTA: -0.0378 E-score; for CTGGGAGA: -0.0538 E-score; for AGAGTTCC: -0.0293 E-score.
Turning to AGTTAAGC, the binding signal was -0.107 E-score.
The same measure for ACTCTTAA: 0.00552 E-score; for AGTCGCCG: -0.175 E-score; for ATGAATGC: 0.0811 E-score.
To ACACCCGT belongs -0.0646 E-score; to AATGAGGT, 0.0652 E-score; to CGGTTCTC, 0.0914 E-score.
To TAGCCCAA belongs -0.0821 E-score; to AGATTGAT, 0.0235 E-score; to GCAAATTA, 0.22 E-score.
The sequence TAACACGA returned a binding signal of 0.00599 E-score.
The sequence CATAGAAA registered a binding signal of 0.105 E-score.
For CATTTCTA, the binding signal turned out to be 0.306 E-score.
On to GATCACAA, for which the binding signal was -0.217 E-score.
To TCTTGGCA belongs -0.0228 E-score.
To AACCGGTA belongs 0.182 E-score.
To AGTCCACC belongs -0.304 E-score; to CGTTCTAA, 0.116 E-score.
ACGATCGG returned a binding signal of 0.132 E-score.
The sequence CGCGCCTA had a binding signal of -0.142 E-score.
The same measure for CACGCCAG: -0.0945 E-score; for AGACATGG: -0.234 E-score; for CATAGCCC: -0.0723 E-score.
The sequence ATCGATCC yielded a binding signal of -0.0605 E-score.
The same measure for ATCCCATC: 0.118 E-score; for GTACGCAA: 0.0401 E-score.
As to CCTTATGC, the binding signal is -0.116 E-score.
To GAGAGCAA belongs -0.203 E-score.
For the sequence CGAGGAGC, the binding signal is -0.311 E-score.
The same measure for CATGCCTC: -0.195 E-score.
As to ATTTCGTA, the binding signal turned out to be 0.212 E-score.
The same measure for AAATACTT: 0.195 E-score; for TACTCCCA: 0.0915 E-score.
To CCCATGAA belongs -0.00596 E-score; to CGCCCCCA, -0.0863 E-score; to AATCGGTG, -0.0998 E-score.
To CTCAGGCC belongs -0.23 E-score; to ATCATGTG, 0.0404 E-score.
As for GTCATCCA, the binding signal is -0.184 E-score.
To GGCTTCAA belongs 0.0213 E-score.
To ATTCATAG belongs 0.274 E-score; to AGGCCGGG, -0.365 E-score.
To AACACACA belongs -0.0212 E-score; to AAGTCAGT, 0.0416 E-score.
CCCCCGGA returned a binding signal of -0.283 E-score.
On to AGCTCGTC, for which the binding signal was -0.149 E-score.
The same measure for CGAACTAA: 0.135 E-score; for CTTCGGAA: -0.0432 E-score; for ACCAACAG: 0.0332 E-score.
The same measure for AACGTGTA: -0.00204 E-score.
To CCCTAGCA belongs -0.0672 E-score.
Sequence GATTATGC came in with a binding signal of 0.165 E-score.
The same measure for AACCATGT: 0.02 E-score; for CCTAGACA: -0.185 E-score; for ACGGGTAG: 0.0714 E-score.
To GACACTAC belongs -0.0975 E-score; to CTCAGAAG, -0.263 E-score; to AGCCTTGC, -0.291 E-score.
ATTGTTGA gave a binding signal of 0.102 E-score.
Turning to AGGGATAG, the binding signal is 0.0205 E-score.
To CCGATTCC belongs -0.211 E-score; to GCCCTACC, 0.0439 E-score.
Turning to ACACATAT, the binding signal was 0.073 E-score.
To CATTGCCG belongs 0.0726 E-score.
To GTAGTTAA belongs 0.405 E-score; to CCTCAGCA, -0.243 E-score; to AGGAGATA, 0.0913 E-score.
To GGGGAGAA belongs -0.215 E-score; to CAGCGCAG, -0.174 E-score.
Consider CCCGAAGC, for which the binding signal was -0.267 E-score.
The sequence AGCTCTCA showed a binding signal of -0.0429 E-score.
To ACGCCCAT belongs -0.205 E-score; to GATGGTGA, 0.0589 E-score.
The same measure for CAGTGGTA: 0.232 E-score; for ATTCGAAG: -0.0327 E-score.
To CTGGTGCA belongs -0.139 E-score; to AGTTACTC, 0.188 E-score.
On to CTGACCAC, for which the binding signal was -0.115 E-score.
The same measure for TGATACAA: 0.253 E-score; for AATGGACT: 0.133 E-score.
The sequence CATCGGGG gave a binding signal of -0.333 E-score.
The same measure for GTATCATA: 0.284 E-score; for GGGGGGAA: -0.187 E-score.
To CACAAGGA belongs -0.22 E-score; to CACTCCAG, -0.153 E-score.
The same measure for AGGGCACA: -0.171 E-score.
Regarding AGGGGATC, the binding signal is -0.126 E-score.
The same measure for ACACGTTA: -0.0113 E-score; for CAACAATG: 0.0621 E-score; for CAATCGGC: -0.141 E-score.
To AATTCCAT belongs 0.0835 E-score; to AAATAGTA, 0.427 E-score.
The same measure for ATGAAATG: 0.148 E-score.
With CGATCTAG, the binding signal amounted to 0.26 E-score.
